# The data scatter; read single values as rough.
# Assay: amyloid nucleation score relative to library mode (yeast Sup35 reporter selection) (log enrichment difference); higher = more amyloid nucleation; sequences are the first 22 residues of the Bri2 peptide extended by up to 12 random residues
# Details: random library (experiment): 1;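 active = nucleation score significantly above 0 at FDR 0.05; inactive = not significantly above 0 or absent from output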
# 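Further: [psi-pin-] Saccharomyces cerevisiae expressing SupN fusions, induced by 100 µM Cu2SO4, selected 7 d at 30 °C without adenine and uracil, scored by deep sequencing of output versus input.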
row,Sequence,amyloid nucleation score
1,EASNCFAIRHFENKFAVETLICWIAWRYGTDGGS,inactive
2,EASNCFAIRHFENKFAVETLICWIEPVSQNRAQR,0.683
3,EASNCFAIRHFENKFAVETLICWIFTDTFRAMWS,inactive
4,EASNCFAIRHFENKFAVETLICWIGAETRTGELC,-0.352
5,EASNCFAIRHFENKFAVETLICWIKCSLGDVTWA,4.88
6,EASNCFAIRHFENKFAVETLICWILTCKMWVSWR,-0.412
7,EASNCFAIRHFENKFAVETLICWIQGLGVVGARA,inactive
8,EASNCFAIRHFENKFAVETLICWIRTRRLRYQYG,inactive
9,EASNCFAIRHFENKFAVETLICWITSTKFVSKLG,inactive
10,EASNCFAIRHFENKFAVETLICWIVEQCARARLW,inactive
11,EASNCFAIRHFENKFAVETLICWIVNMALFYVET,1.18
12,EASNCFAIRHFENKFAVETLICWIWRWLPGMRAG,inactive
13,EASNCFAIRHFENKFAVETLICWK,inactive
14,EASNCFAIRHFENKFAVETLICWKAPCIRHHLEG,inactive
15,EASNCFAIRHFENKFAVETLICWKARLGSGQHGG,3.56
16,EASNCFAIRHFENKFAVETLICWKDGQRLSCVGQ,inactive
17,EASNCFAIRHFENKFAVETLICWKFGNSVGTEGC,2.7
18,EASNCFAIRHFENKFAVETLICWKGAALRSSTWA,inactive
19,EASNCFAIRHFENKFAVETLICWKGQVKSRSRGK,inactive
20,EASNCFAIRHFENKFAVETLICWKGVDSSWHPV,4.26
21,EASNCFAIRHFENKFAVETLICWKLFSSCSFTFA,-0.0194
22,EASNCFAIRHFENKFAVETLICWKLNSVSVWIHI,-0.606
23,EASNCFAIRHFENKFAVETLICWKMRFP,-0.029
24,EASNCFAIRHFENKFAVETLICWKPLSDSFYLAS,inactive
25,EASNCFAIRHFENKFAVETLICWKRGDIVGVRSG,-0.517
26,EASNCFAIRHFENKFAVETLICWKSRKGSQDDSG,-0.00976
27,EASNCFAIRHFENKFAVETLICWKVMRKCWRIIT,inactive

row,Sequence,amyloid nucleation score
1,EASNCFAIRHFENKFAVETLICWKVVWHWDSEAE,inactive
2,EASNCFAIRHFENKFAVETLICWL,7.26
3,EASNCFAIRHFENKFAVETLICWLACVPMTHTDA,inactive
4,EASNCFAIRHFENKFAVETLICWLAPWRSMGPHA,inactive
5,EASNCFAIRHFENKFAVETLICWLDKTDVRQWSD,inactive
6,EASNCFAIRHFENKFAVETLICWLEGIRGCGLVG,inactive
7,EASNCFAIRHFENKFAVETLICWLFARSEKMFDP,inactive
8,EASNCFAIRHFENKFAVETLICWLFTRRVVFGGL,inactive
9,EASNCFAIRHFENKFAVETLICWLGIHTPLQAIG,inactive
10,EASNCFAIRHFENKFAVETLICWLGWGEWVELTR,inactive
11,EASNCFAIRHFENKFAVETLICWLHCQYRHLRWT,-0.0846
12,EASNCFAIRHFENKFAVETLICWLKFCLYRRCCY,inactive
13,EASNCFAIRHFENKFAVETLICWLLIDTGRRRLA,inactive
14,EASNCFAIRHFENKFAVETLICWLPVAQLERVGS,inactive
15,EASNCFAIRHFENKFAVETLICWLQYMSFQGNMP,inactive
16,EASNCFAIRHFENKFAVETLICWLRASVRGEVAG,inactive
17,EASNCFAIRHFENKFAVETLICWLRTCVHWVQME,inactive
18,EASNCFAIRHFENKFAVETLICWLRWSSCDSACR,inactive
19,EASNCFAIRHFENKFAVETLICWLVSEKI,-0.345
20,EASNCFAIRHFENKFAVETLICWLWSISGAMCQA,inactive
21,EASNCFAIRHFENKFAVETLICWM,6.19
22,EASNCFAIRHFENKFAVETLICWMELLGCKCCRR,inactive
23,EASNCFAIRHFENKFAVETLICWMERPAGHRPMC,inactive
24,EASNCFAIRHFENKFAVETLICWML,6.17
25,EASNCFAIRHFENKFAVETLICWMQRMA,6
26,EASNCFAIRHFENKFAVETLICWMRQGGPVTVPR,-0.331
27,EASNCFAIRHFENKFAVETLICWMVHEHSVRA,inactive

# Same assay, conditions: random library (experiment): 2
row,Sequence,amyloid nucleation score
1,EASNCFAIRHFENKFAVETLICWIEKFLYVTRHA,inactive
2,EASNCFAIRHFENKFAVETLICWIGVLFCAGYSG,4.84
3,EASNCFAIRHFENKFAVETLICWII,inactive
4,EASNCFAIRHFENKFAVETLICWIIRLYSMSVRW,inactive
5,EASNCFAIRHFENKFAVETLICWILFICYGFGSS,inactive
6,EASNCFAIRHFENKFAVETLICWILITAGVGNLQ,3.06
7,EASNCFAIRHFENKFAVETLICWILYTLRLGSSF,inactive
8,EASNCFAIRHFENKFAVETLICWIRLLDRSIF,inactive
9,EASNCFAIRHFENKFAVETLICWIRQYLYAFGCC,inactive
10,EASNCFAIRHFENKFAVETLICWIRVFAFMCIIV,inactive
11,EASNCFAIRHFENKFAVETLICWISCRCVCFW,inactive
12,EASNCFAIRHFENKFAVETLICWIWLSKYALFWE,inactive
13,EASNCFAIRHFENKFAVETLICWIYDLSFVNHFR,1.17
14,EASNCFAIRHFENKFAVETLICWIYRVSIPRSAC,inactive
15,EASNCFAIRHFENKFAVETLICWKFI,6.11
16,EASNCFAIRHFENKFAVETLICWKKGSCSYSNNL,2.33
17,EASNCFAIRHFENKFAVETLICWKQKGQEPNRDM,inactive

row,Sequence,amyloid nucleation score
1,EASNCFAIRHFENKFAVETLICWKSWI,inactive
2,EASNCFAIRHFENKFAVETLICWKTR,inactive
3,EASNCFAIRHFENKFAVETLICWKTSDILDGRSV,inactive
4,EASNCFAIRHFENKFAVETLICWLFVNWLSSWNS,inactive
5,EASNCFAIRHFENKFAVETLICWLMLDHKLEVML,inactive
6,EASNCFAIRHFENKFAVETLICWLRGKVATCLTR,inactive
7,EASNCFAIRHFENKFAVETLICWLSACFI,5.06
8,EASNCFAIRHFENKFAVETLICWLSLRIMSNWWL,inactive
9,EASNCFAIRHFENKFAVETLICWLTIPTGLFVIR,inactive
10,EASNCFAIRHFENKFAVETLICWLVIFVGCAYWR,inactive
11,EASNCFAIRHFENKFAVETLICWLVNVKVNKAIK,inactive
12,EASNCFAIRHFENKFAVETLICWLVRSF,inactive
13,EASNCFAIRHFENKFAVETLICWLVVFSLYLAYV,inactive
14,EASNCFAIRHFENKFAVETLICWLVVVVCSFKTS,inactive
15,EASNCFAIRHFENKFAVETLICWMF,6.55
16,EASNCFAIRHFENKFAVETLICWMNQLYIWHSRE,inactive
17,EASNCFAIRHFENKFAVETLICWMRSYSDLFLSH,inactive

# Same assay, conditions: random library (experiment): 3
row,Sequence,amyloid nucleation score
1,EASNCFAIRHFENKFAVETLICWIHVPLAFLLGS,inactive
2,EASNCFAIRHFENKFAVETLICWILGMRRRRLRK,inactive
3,EASNCFAIRHFENKFAVETLICWILVGEGDGTRC,inactive
4,EASNCFAIRHFENKFAVETLICWIRASVWRDGGT,inactive
5,EASNCFAIRHFENKFAVETLICWKFATSAEYSPW,inactive
6,EASNCFAIRHFENKFAVETLICWKGTMVVGSNWP,0.238
7,EASNCFAIRHFENKFAVETLICWKLLRVSCGVLM,-0.0441
8,EASNCFAIRHFENKFAVETLICWKLSSTMMGRVP,0.798
9,EASNCFAIRHFENKFAVETLICWKT,0.838
10,EASNCFAIRHFENKFAVETLICWKVWQNDHRYIG,inactive
11,EASNCFAIRHFENKFAVETLICWLAGWRFPLMK,inactive
12,EASNCFAIRHFENKFAVETLICWLFGSNG,8.69
13,EASNCFAIRHFENKFAVETLICWLGPTTEGLEVA,inactive
14,EASNCFAIRHFENKFAVETLICWLLKLWRPSS,inactive
15,EASNCFAIRHFENKFAVETLICWLLVTRLLYSDE,inactive
16,EASNCFAIRHFENKFAVETLICWLMLTVCALRCE,inactive
17,EASNCFAIRHFENKFAVETLICWLNTIGVRLGCE,inactive
18,EASNCFAIRHFENKFAVETLICWLPKYARRRETV,inactive
19,EASNCFAIRHFENKFAVETLICWLRITNDYWELL,inactive
20,EASNCFAIRHFENKFAVETLICWLRMLRYAVSWV,inactive
21,EASNCFAIRHFENKFAVETLICWLSIIYLPGGV,inactive
22,EASNCFAIRHFENKFAVETLICWMAIRDACKPSY,inactive
23,EASNCFAIRHFENKFAVETLICWMAVAALTRGVE,inactive
24,EASNCFAIRHFENKFAVETLICWMKVCRCCPSRS,inactive
25,EASNCFAIRHFENKFAVETLICWMLFNVWRIIPR,inactive
26,EASNCFAIRHFENKFAVETLICWMLWRRLGMEGG,inactive
27,EASNCFAIRHFENKFAVETLICWMNDVLVSILST,inactive
28,EASNCFAIRHFENKFAVETLICWMQYIGRVGDFR,inactive
29,EASNCFAIRHFENKFAVETLICWMVAITCGTKLV,1.2

# Source: the supplement of paper PMC12067230
